# Some of the results follow.
# What was measured:
# Assay in all cases: glycan array binding signal (z-score within array); higher = stronger binding
# Conditions in all cases: glycan notation: IUPAC condensed, linker removed
# [1] = target: Gal(b1-4)GlcNAc(b1-2)[Gal(b1-4)GlcNAc(b1-4)]Man(a1-3)[Gal(b1-4)GlcNAc(b1-2)[Gal(b1-4)GlcNAc(b1-6)]Man(a1-6)]Man(b1-4)GlcNAc(b1-4)GlcNAc
# Procedure, shortened: (§1)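 Negative Z-scores can be read as non-binding. The Z-score is calculated within each array and then averaged across arrays of one protein sequence at different concentrations or buffers and across linkers. Arrays, 3228 in all, were curated from the Consortium for Functional Glycomics database and kept only where the protein sequence was available.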
# [2] = target: Gal(b1-4)GlcNAc(b1-2)[Gal(b1-4)GlcNAc(b1-4)]Man(a1-3)[GlcNAc(b1-4)][Gal(b1-4)GlcNAc(b1-2)Man(a1-6)]Man(b1-4)GlcNAc(b1-4)GlcNAc
# Procedure, shortened: as §1
# [3] = target: Gal(b1-4)GlcNAc(b1-2)[Gal(b1-4)GlcNAc(b1-6)]Man(a1-6)[GlcNAc(b1-4)][Gal(b1-4)GlcNAc(b1-2)Man(a1-3)]Man(b1-4)GlcNAc(b1-4)GlcNAc
# Procedure, shortened: as §1
# [4] = target: Gal(b1-4)GlcNAc(b1-3)Gal(b1-3)GlcNAc
# Procedure, shortened: as §1
# [5] = target: Gal(b1-4)GlcNAc(b1-3)Gal(b1-4)Glc
# Procedure, shortened: as §1
# [6] = target: Gal(b1-4)GlcNAc(b1-3)Gal(b1-4)GlcNAc
# Procedure, shortened: as §1
# [7] = target: Gal(b1-4)GlcNAc(b1-3)Gal(b1-4)GlcNAc(b1-3)Gal(b1-4)GlcNAc
# Procedure, shortened: as §1
# [8] = target: Gal(b1-4)GlcNAc(b1-3)Gal(b1-4)[Fuc(a1-3)GlcNAc(b1-6)]Gal(b1-4)Glc
# Procedure, shortened: as §1
# [9] = target: Gal(b1-4)GlcNAc(b1-3)Gal(b1-4)[Fuc(a1-3)]GlcNAc(b1-3)Gal(b1-4)[Fuc(a1-3)]GlcNAc
# Procedure, shortened: as §1
# [10] = target: Gal(b1-4)GlcNAc(b1-3)GalNAc
# Procedure, shortened: as §1
# [11] = target: Gal(b1-4)GlcNAc(b1-3)[Gal(b1-4)GlcNAc(b1-6)]Gal(b1-4)GlcNAc
# Procedure, shortened: as §1
# [12] = target: Gal(b1-4)GlcNAc(b1-3)[Gal(b1-4)GlcNAc(b1-6)]GalNAc
# Procedure, shortened: as §1
# [13] = target: Gal(b1-4)GlcNAc(b1-3)[GlcNAc(b1-6)]Gal(b1-4)GlcNAc
# Procedure, shortened: as §1
# [14] = target: Gal(b1-4)GlcNAc(b1-6)Gal(b1-4)GlcNAc
# Procedure, shortened: as §1
# [15] = target: Gal(b1-4)GlcNAc(b1-6)GalNAc
# Procedure, shortened: as §1
# [16] = target: Gal(b1-4)GlcNAc(b1-6)[Gal(b1-3)]GalNAc
# Procedure, shortened: as §1
# Gal(b1-6)Gal = target: Gal(b1-6)Gal
# Procedure, shortened: as §1
# Gal3S(b1-3)GalNAc = target: Gal3S(b1-3)GalNAc
# Procedure, shortened: as §1
# Gal3S(b1-3)GlcNAc = target: Gal3S(b1-3)GlcNAc
# Procedure, shortened: as §1
# [17] = target: Gal3S(b1-3)[Fuc(a1-4)]GlcNAc
# Procedure, shortened: as §1
# Gal3S(b1-4)Glc = target: Gal3S(b1-4)Glc
# Procedure, shortened: as §1
# Gal3S(b1-4)Glc6S = target: Gal3S(b1-4)Glc6S
# Procedure, shortened: as §1
# Gal3S(b1-4)GlcNAc = target: Gal3S(b1-4)GlcNAc
# Procedure, shortened: as §1
# Gal3S(b1-4)GlcNAc6S = target: Gal3S(b1-4)GlcNAc6S
# Procedure, shortened: as §1
# [18] = target: Gal3S(b1-4)[Fuc(a1-3)]Glc
# Procedure, shortened: as §1
# [19] = target: Gal3S(b1-4)[Fuc(a1-3)]Glc6S
# Procedure, shortened: as §1
# Gal3S4S(b1-4)GlcNAc = target: Gal3S4S(b1-4)GlcNAc
# Procedure, shortened: as §1
# Gal3S6S(b1-4)GlcNAc = target: Gal3S6S(b1-4)GlcNAc
# Procedure, shortened: as §1
# Gal3S6S(b1-4)GlcNAc6S = target: Gal3S6S(b1-4)GlcNAc6S
# Procedure, shortened: as §1
# Gal4S(b1-4)GlcNAc = target: Gal4S(b1-4)GlcNAc
# Procedure, shortened: as §1
# Gal4S6S(b1-4)GlcNAc = target: Gal4S6S(b1-4)GlcNAc
# Procedure, shortened: as §1
# Gal6S(b1-3)GlcNAc = target: Gal6S(b1-3)GlcNAc
# Procedure, shortened: as §1
# Gal6S(b1-3)GlcNAc6S = target: Gal6S(b1-3)GlcNAc6S
# Procedure, shortened: as §1
# Gal6S(b1-4)Glc = target: Gal6S(b1-4)Glc
# Procedure, shortened: as §1
# Gal6S(b1-4)Glc6S = target: Gal6S(b1-4)Glc6S
# Procedure, shortened: as §1
# Gal6S(b1-4)GlcNAc = target: Gal6S(b1-4)GlcNAc
# Procedure, shortened: as §1
# Gal6S(b1-4)GlcNAc6S = target: Gal6S(b1-4)GlcNAc6S
# Procedure, shortened: as §1
# GalNAc(a1-3)Gal = target: GalNAc(a1-3)Gal
# Procedure, shortened: as §1
# GalNAc(a1-3)GalNAc = target: GalNAc(a1-3)GalNAc
# Procedure, shortened: as §1
# [20] = target: GalNAc(a1-3)GalNAc(a1-3)Gal(a1-4)Gal(b1-4)GlcNAc
# Procedure, shortened: as §1
# [21] = target: GalNAc(a1-3)GalNAc(b1-3)Gal(a1-4)Gal(b1-4)Glc
# Procedure, shortened: as §1
# GalNAc(b1-3)Gal = target: GalNAc(b1-3)Gal
# Procedure, shortened: as §1
# [22] = target: GalNAc(b1-3)Gal(a1-4)Gal(b1-4)GlcNAc
# Procedure, shortened: as §1
# [23] = target: GalNAc(b1-3)Gal(a1-4)Gal(b1-4)GlcNAc(b1-3)Gal(b1-4)Glc
# Procedure, shortened: as §1
# [24] = target: GalNAc(b1-3)Gal(a1-6)Gal(b1-4)Glc
# Procedure, shortened: as §1
binder,measurement,setting,value
"Tap1 (Sordaria macrospora), Q50IV4 (protein) MSHHHHHHHHYTLHLRLINDTSDTLTLVEQTSWWGKNTIWSQVRSTGVHVLSMAASGSSGMLRFQTSKGDFFAVAVGVHNYKRWCDVLVDTADEAPLTKLHPKYYDDKDAKYQALWAQASEFEAKSKSGKTVRIKFYQADGNVLRATVEYL",glycan array binding signal (z-score),[1],-0.243
same,glycan array binding signal (z-score),[2],0.077
same,glycan array binding signal (z-score),[3],-0.22
same,glycan array binding signal (z-score),[4],-0.239
same,glycan array binding signal (z-score),[5],-0.235
same,glycan array binding signal (z-score),[6],-0.242
same,glycan array binding signal (z-score),[7],-0.259
same,glycan array binding signal (z-score),[8],-0.249
same,glycan array binding signal (z-score),[9],-0.206
same,glycan array binding signal (z-score),[10],0.987
same,glycan array binding signal (z-score),[11],-0.264
same,glycan array binding signal (z-score),[12],-0.246
same,glycan array binding signal (z-score),[13],-0.251
same,glycan array binding signal (z-score),[14],-0.224
same,glycan array binding signal (z-score),[15],-0.217
same,glycan array binding signal (z-score),[16],1.08
same,glycan array binding signal (z-score),Gal(b1-6)Gal,-0.203
same,glycan array binding signal (z-score),Gal3S(b1-3)GalNAc,5.01
same,glycan array binding signal (z-score),Gal3S(b1-3)GlcNAc,-0.096
same,glycan array binding signal (z-score),[17],-0.246
same,glycan array binding signal (z-score),Gal3S(b1-4)Glc,-0.222
same,glycan array binding signal (z-score),Gal3S(b1-4)Glc6S,-0.208
same,glycan array binding signal (z-score),Gal3S(b1-4)GlcNAc,-0.214
same,glycan array binding signal (z-score),Gal3S(b1-4)GlcNAc6S,-0.208
same,glycan array binding signal (z-score),[18],-0.195
same,glycan array binding signal (z-score),[19],-0.18
same,glycan array binding signal (z-score),Gal3S4S(b1-4)GlcNAc,-0.217
same,glycan array binding signal (z-score),Gal3S6S(b1-4)GlcNAc,-0.232
same,glycan array binding signal (z-score),Gal3S6S(b1-4)GlcNAc6S,-0.22
same,glycan array binding signal (z-score),Gal4S(b1-4)GlcNAc,-0.232
same,glycan array binding signal (z-score),Gal4S6S(b1-4)GlcNAc,-0.195
same,glycan array binding signal (z-score),Gal6S(b1-3)GlcNAc,-0.245
same,glycan array binding signal (z-score),Gal6S(b1-3)GlcNAc6S,-0.24
same,glycan array binding signal (z-score),Gal6S(b1-4)Glc,-0.176
same,glycan array binding signal (z-score),Gal6S(b1-4)Glc6S,-0.197
same,glycan array binding signal (z-score),Gal6S(b1-4)GlcNAc,-0.236
same,glycan array binding signal (z-score),Gal6S(b1-4)GlcNAc6S,-0.221
same,glycan array binding signal (z-score),GalNAc(a1-3)Gal,-0.246
same,glycan array binding signal (z-score),GalNAc(a1-3)GalNAc,-0.223
same,glycan array binding signal (z-score),[20],-0.247
same,glycan array binding signal (z-score),[21],-0.202
same,glycan array binding signal (z-score),GalNAc(b1-3)Gal,-0.23
same,glycan array binding signal (z-score),[22],-0.244
same,glycan array binding signal (z-score),[23],-0.22
same,glycan array binding signal (z-score),[24],-0.168
